Results from the BET-seq Pho4 binding data (Le et al. 2018).
This is one part of the list. The energies were worked out here from pooled read counts, against the library average; single values are noisy.

biological target: T1, Pho4 (S. cerevisiae) (UniProt P07270); test: relative binding free energy (BET-seq); higher = weaker binding; conditions: reference: library average
T1 sequence: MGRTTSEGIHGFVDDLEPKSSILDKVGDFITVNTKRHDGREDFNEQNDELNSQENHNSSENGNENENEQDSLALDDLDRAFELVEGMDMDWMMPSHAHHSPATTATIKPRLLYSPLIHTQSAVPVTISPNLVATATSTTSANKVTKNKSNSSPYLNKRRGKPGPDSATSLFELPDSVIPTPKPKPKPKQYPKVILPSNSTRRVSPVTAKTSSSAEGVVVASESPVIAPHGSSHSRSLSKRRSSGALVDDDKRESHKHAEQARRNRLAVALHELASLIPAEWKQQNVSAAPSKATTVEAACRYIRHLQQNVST

Sequence	relative binding free energy [kcal/mol]
GAGGTCACGTGGCGTG	0
TATTCCACGTGTTTGG	-0.04
AGATGCACGTGTCGTT	-0.04
TGGGTCACGTGGGTGT	0.05
TGTGGCACGTGAAAGC	0.13
ATTTTCACGTGAAAGT	0.4
TGAAGCACGTGAGCTG	0.18
GTTCGCACGTGGTGGC	-0.1
ATTAGCACGTGTGCGT	-0.06
AGTGACACGTGGATTA	-0.09
GGGTACACGTGGTACG	-0.04
TGTACCACGTGTGTTA	-0.18
GTTTACACGTGAAGTA	0.17
TTCATCACGTGTTGGT	0.1
TTTGTCACGTGTGGGT	0.21
CGGGGCACGTGATAGT	0.08
TTTTGCACGTGTCTTG	0
TCGTGCACGTGGCATG	-0.08
CGGTACACGTGGTGTG	0
TGCAGCACGTGGTGAT	-0.1
AGAGGCACGTGCAAGT	-0.13
CATGACACGTGAGTTG	0.31
ATTTGCACGTGTGAAA	0.11
ATAGGCACGTGATTGC	-0.11
AGGGCCACGTGTGAAG	0.1
ATACTCACGTGGGGGG	-0.04

Sequence	relative binding free energy [kcal/mol]
GGACGCACGTGTGTGG	0.03
CGGTACACGTGTGTGC	0.04
GGTAACACGTGGTTGA	0.1
ACTTTCACGTGAGGTC	0.42
TGAGTCACGTGAAGAG	0.3
TTTAACACGTGACAGG	0.13
TGTAACACGTGGGACT	-0.11
GCTGACACGTGGGGTG	-0.12
AGCATCACGTGTTGGT	0.25
TTTCTCACGTGTGTGG	0.34
GGGCTCACGTGGGGCA	0.08
ACTGTCACGTGTATGG	0.09
TAGGTCACGTGTGCAA	0.17
AGTCACACGTGTGTAG	0.05
CGGGACACGTGACGGG	0.08
TACGTCACGTGTGGGT	0.2
AAGGCCACGTGGGATG	-0.15
GTTAGCACGTGGCTGC	0.01
TAATCCACGTGGTGTT	-0.01
GGTGGCACGTGTTCTG	0.01
TTCATCACGTGTAAGG	0.16
TTTGACACGTGAAAGA	0.23
GGCGTCACGTGAGATT	0.51
TATAGCACGTGGTGCA	-0.19
ATGGACACGTGGTACG	-0.07
TATCTCACGTGTTTTT	0.17

Sequence	relative binding free energy [kcal/mol]
AGTATCACGTGTGCTG	0.15
GGGTACACGTGATCGG	0.31
AATGTCACGTGGTGGT	0.09
GTGTACACGTGGAAAT	0.22
AGTGTCACGTGATGAA	0.16
AACGGCACGTGGTGAT	-0.18
GTATACACGTGCAGGT	0.02
TTGATCACGTGCGATG	0.14
CGTTTCACGTGTTGCG	0.18
TAATTCACGTGTGAGC	0.35
TTCTCCACGTGTTGTT	0.04
TAAGCCACGTGGGTTG	-0.27
CTCAGCACGTGGAGGT	0.01
GTATGCACGTGTTGAT	-0.01
ATAAGCACGTGCTGGA	0
CCGGTCACGTGTGTGG	0.05
TTGGGCACGTGGAGCG	-0.09
TTGGCCACGTGCTGTG	-0.13
TGGGCCACGTGTAATG	0.1
TGATGCACGTGGTTGC	-0.03
AAGTGCACGTGCGTGG	-0.11
CGGTTCACGTGGATAG	0.44
TGACTCACGTGAAGGT	0.28
AACGTCACGTGAGGGG	0.18
TTAGTCACGTGTATCG	0.21
AGGGGCACGTGCAAAG	-0.14

Sequence	relative binding free energy [kcal/mol]
TTGACCACGTGGTTAA	0.05
TTTTGCACGTGGCCTT	-0.09
GGGGACACGTGTGTAC	0.21
TGGCACACGTGGAGTT	0.14
ATGGCCACGTGGTGCG	-0.11
TTATGCACGTGTTTCA	-0.12
TGGATCACGTGCTGTG	0.14
GTCATCACGTGGTTAT	0.12
AGTTTCACGTGTCTCT	0.21
AATTGCACGTGGGATA	-0.03
TGTGTCACGTGCAGGA	0.06
ATGGACACGTGGGGGC	-0.1
GCATACACGTGTTGTG	-0.15
AGATTCACGTGTGTAT	0.24
GTGTACACGTGCGGTC	0.15
CATTTCACGTGTCGGT	0.18
ACGGTCACGTGGGTAT	0
ATTGTCACGTGGTGAA	0.15
TTGGGCACGTGTGACG	0.04
GCGGGCACGTGGCGGT	-0.23
TAGGTCACGTGGCTTG	-0.02
ATTGACACGTGTTGTT	-0.04
GATAACACGTGTTGGA	0.08
GCTGTCACGTGTAATT	0.32
TTCCGCACGTGTGGGT	-0.07
TCGTTCACGTGAATAG	0.46

Sequence	relative binding free energy [kcal/mol]
GTAGACACGTGGGCTG	-0.27
TAGTGCACGTGTTTCA	-0.06
TTGGGCACGTGGGCTA	-0.15
ATTCACACGTGGTTGG	0.06
GGTTTCACGTGCGTTC	0.13
TTGCTCACGTGTGCTG	0.25
GCGGGCACGTGGATGG	0.01
TATGGCACGTGATGGA	-0.07
TGGTGCACGTGGAATT	-0.01
GGTATCACGTGGTCAT	0.35
ATATACACGTGAGATG	0.33
TTAGTCACGTGACGGT	0.11
TGGTTCACGTGATTGG	0.54
GCTGTCACGTGGGTTT	0.09
TGTGGCACGTGGTCTA	-0.27
GGTCTCACGTGTGGGC	0.27
TGCGACACGTGGTTGT	0.08
GATGGCACGTGCGCGA	-0.06
CATTACACGTGGGCGG	-0.06
ATTGACACGTGATATG	0.12
GCGTACACGTGTGTTG	0.13
GATTACACGTGGAGAG	0.21
GGGTTCACGTGCTAAG	0.29
CAGTCCACGTGGGGTT	-0.08
TTTTGCACGTGTTAAA	0.03
TGGGGCACGTGGATTG	-0.03

Sequence	relative binding free energy [kcal/mol]
CAGGTCACGTGGAATG	0.29
CGTAACACGTGGGGGT	-0.2
TGTGTCACGTGATAGT	0.19
TGTGGCACGTGGTTTC	-0.21
TTATCCACGTGGGATG	-0.07
TAGTACACGTGTAGAG	0.06
GATTTCACGTGGTCAG	0.27
CGTTTCACGTGTAGAT	0.37
TGGCGCACGTGGCGTC	-0.15
TTTTGCACGTGCGTAA	-0.15
CGTCTCACGTGGGTTT	-0.03
CATTTCACGTGAGGCG	0.43
ATATGCACGTGCGTTG	-0.19
TATAGCACGTGTGGAC	0.14
TTGGGCACGTGAATAC	0.13
GGACGCACGTGTCAGG	-0.01
AGGATCACGTGTGCAG	0.2
TGTTGCACGTGCTGGG	-0.2
AACGGCACGTGCGGTG	-0.14
ATTGTCACGTGTCGGA	-0.08
ATAGGCACGTGATGGA	-0.14
GTGGTCACGTGTGCGT	0.05
ACGAGCACGTGGTCGG	-0.07
GTTGACACGTGTTCAT	0.03
ATAGGCACGTGGGTAT	-0.26
CTCGGCACGTGCTGTG	0.01

Sequence	relative binding free energy [kcal/mol]
GATGTCACGTGTGTTG	0.18
TACAGCACGTGAAGGT	0.15
GTATGCACGTGTAGCG	0.09
AGTTGCACGTGATGCA	-0.07
AGTTGCACGTGGGAGT	-0.08
GGTACCACGTGAGGGA	0.1
TAGTTCACGTGCTGTT	0.22
GATTGCACGTGTGTAG	0
CAGGACACGTGGGGAT	0.02
ATAGACACGTGGGTCG	-0.03
CTATGCACGTGTGAGT	0.09
TGGGTCACGTGTCTGT	0.2
ATATCCACGTGTGGTT	-0.02
GGAGACACGTGAAGGG	0.28
GGAGTCACGTGGGGTG	0.04
TAGGTCACGTGAGAGT	0.35
ATGAGCACGTGGGTTA	-0.17
GGTGGCACGTGCGGGT	-0.06
CGTATCACGTGAGTTT	0.4
TTGTACACGTGGCTTT	0.03
ACTGGCACGTGGATGT	-0.07
AGGATCACGTGTAGGT	0.24
TTGCACACGTGGAATG	0.16
ATACACACGTGAGGTG	0.24
TGCCGCACGTGGATGG	0.01
GAGGGCACGTGAAGGG	0.26

Sequence	relative binding free energy [kcal/mol]
TTGATCACGTGCTGGA	0.24
TAATGCACGTGGGCCG	-0.19
TTTGCCACGTGGGCTG	-0.31
TTGGTCACGTGTGTGG	0.16
GCTTGCACGTGGTATA	-0.09
ATTGGCACGTGCTGGA	-0.13
AGTCTCACGTGGTATA	0.13
CTTGACACGTGTTAGG	0.12
TTGCACACGTGGGTTA	-0.15
TGGCTCACGTGGATTG	0.25
AAGGACACGTGAAGTG	0.33
TGGTGCACGTGCGCTA	-0.15
GAAGTCACGTGGTTCG	0.16
TAGCTCACGTGGTATA	0.19
GTGAGCACGTGTTTGA	-0.09
TAGTACACGTGGGGCA	-0.04
CTTATCACGTGATGGG	0.2
GTAAGCACGTGGCTTG	-0.09
GGATACACGTGAGATG	0.29
ATAATCACGTGGTGAG	0.12
AGGTTCACGTGGGGCC	0.15
ATGGTCACGTGCTTGA	0.14
CGACGCACGTGGGGAG	-0.17
TTTGGCACGTGAAAAG	0.08
AATGGCACGTGGCTGA	-0.23
ATCTTCACGTGTGGAT	0.15

Sequence	relative binding free energy [kcal/mol]
CTTGGCACGTGCTTTG	-0.17
TTTTGCACGTGTGTTG	0.1
GTTCACACGTGTGTGT	0.26
ACGGGCACGTGCATGG	-0.17
GGTCGCACGTGATATG	0.13
AATGACACGTGGGTCT	-0.14
GTAGTCACGTGGGTAC	-0.04
GTTTTCACGTGTGTAA	0.45
GCGGCCACGTGTGTTT	0.14
CGTGGCACGTGTGTAT	-0.08
TCATACACGTGTGCGT	0.06
GGAAGCACGTGGTATT	-0.16
AAGTGCACGTGTATGG	-0.04
GTGGTCACGTGTTAAA	0.28
AGGTGCACGTGATAGA	-0.01
CGTGACACGTGTTTTA	-0.06
ATAATCACGTGGCTTG	0.04
GTGGTCACGTGGCGGT	0.25
TCTTTCACGTGTTGGT	0.3
GTTTGCACGTGAAGCA	0.22
TAATTCACGTGATCGG	0.26
AGATTCACGTGGACGT	0.36
